Measured values from publication PMC4336329 (PLoS ONE, 2015).
The campaign covered roughly 310,000 compounds. About 14,000 (4.5%) showed an effect of 50% or more. Effects have a minus sign here. The list shows a part of the results.

biological target: human ether-à-go-go-related gene (hERG) potassium channel (human, UniProt Q12809); assay: primary screen, population patch clamp on CHO cells stably expressing hERG
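Note: peak tail current of the secondary pulse compared with the same well before compound.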

Sequence of human ether-à-go-go-related gene (hERG) potassium channel (Q12809 whole entry, looked up): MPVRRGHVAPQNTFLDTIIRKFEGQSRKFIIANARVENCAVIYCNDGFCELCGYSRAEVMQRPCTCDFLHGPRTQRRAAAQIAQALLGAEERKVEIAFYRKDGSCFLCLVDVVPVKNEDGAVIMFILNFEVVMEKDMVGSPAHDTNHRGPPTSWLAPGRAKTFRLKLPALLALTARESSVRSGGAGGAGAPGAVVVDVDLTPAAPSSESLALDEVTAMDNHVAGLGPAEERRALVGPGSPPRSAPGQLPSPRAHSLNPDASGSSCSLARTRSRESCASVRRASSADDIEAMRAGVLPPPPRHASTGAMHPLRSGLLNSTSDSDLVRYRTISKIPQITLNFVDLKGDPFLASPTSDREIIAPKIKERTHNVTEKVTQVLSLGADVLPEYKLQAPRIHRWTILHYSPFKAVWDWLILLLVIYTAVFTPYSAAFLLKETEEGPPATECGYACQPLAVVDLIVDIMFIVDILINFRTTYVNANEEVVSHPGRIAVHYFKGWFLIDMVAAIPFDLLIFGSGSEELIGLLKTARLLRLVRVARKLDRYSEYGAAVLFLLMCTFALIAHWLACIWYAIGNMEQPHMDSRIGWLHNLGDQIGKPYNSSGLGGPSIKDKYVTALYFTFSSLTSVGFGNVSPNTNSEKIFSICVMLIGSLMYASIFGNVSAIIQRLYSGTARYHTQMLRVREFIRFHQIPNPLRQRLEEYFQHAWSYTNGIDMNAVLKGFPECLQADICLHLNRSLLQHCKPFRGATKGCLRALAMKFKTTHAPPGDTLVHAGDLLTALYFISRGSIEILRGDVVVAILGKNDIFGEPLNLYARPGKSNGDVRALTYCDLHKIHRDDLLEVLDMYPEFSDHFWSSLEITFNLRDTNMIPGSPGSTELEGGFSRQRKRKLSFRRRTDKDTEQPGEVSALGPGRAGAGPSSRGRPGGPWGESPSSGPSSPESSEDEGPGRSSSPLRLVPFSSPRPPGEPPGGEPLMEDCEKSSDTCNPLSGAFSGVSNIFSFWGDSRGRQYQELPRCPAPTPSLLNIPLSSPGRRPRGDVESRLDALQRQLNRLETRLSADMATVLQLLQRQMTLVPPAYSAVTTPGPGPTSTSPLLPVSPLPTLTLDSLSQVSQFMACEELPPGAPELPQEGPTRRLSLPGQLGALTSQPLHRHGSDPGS

SMILES | hERG current change (%, negative = inhibition) at 10uM [%]
Cc1cc(Cl)nc(-n2nc(C)cc2C)n1 | 2.6
O=C(NCCCN1CCOCC1)c1ccc([N+](=O)[O-])cc1[N+](=O)[O-] | 10.5
O=C(O)c1cccc(N=NN2CCOCC2)c1 | 10.8
COc1ccc(Nc2nc(N)nc(C(F)(F)F)n2)c(OC)c1 | 1.11
COc1cc2c(cc1OC)C(C)=NC1(CCCCC1)C2.O=C(O)c1ccccc1O | -15.6
Cc1cccc(C)c1NC(=O)CN(C)C(=O)Cc1cccc(C(F)(F)F)c1 | 20.9
CC(C)(Oc1cccc2ccccc12)C(=O)O | -1.09
COc1cc(C2/C(=C(/O)c3ccc(F)cc3)C(=O)C(=O)N2CCCC(=O)O)ccc1O (centres unmarked) | 8.64
Cc1cccc(NC(=O)C2CCN(C(=O)NCc3ccccc3)CC2)c1C | 1.9
Cc1cc(NC(=O)c2cc(C3CC3)on2)n(-c2ccccc2)n1 | -1.78
CCOC(=O)C1=NNC(C(=O)c2ccc(C)cc2)C1c1ccc(C)cc1 (centres unmarked) | -2.99
CCOc1cc(/C=C(/NC(C)=O)C(=O)O)cc(Cl)c1OCc1ccc(Br)cc1 | -15.8
O=C(Nc1sc2c(c1C(=O)c1ccccc1)CCCC2)c1cccnc1 | 6.84
COc1ccc(CCNC(=S)NC(=O)c2ccccc2)cc1OC | 2.78
Cc1ccc(-n2nc3c(=O)n(CC(=O)NCCCc4ccccc4)nc(C)c3c2C)cc1 | 4
CN1CCN(c2ccc([N+](=O)[O-])cc2NC(=O)c2ccco2)CC1 | -66.9
COc1ccc(C(=O)CSc2nnc(NC(=O)C3CC(=O)N(c4ccccc4)C3)s2)cc1 (centres unmarked) | -7.02
COc1ccc(Cc2noc(-c3ccccc3)n2)cc1OC | -18.7
CCCOc1cccc(C2C(C(=O)c3cc4ccccc4o3)=C(O)C(=O)N2c2cc(C)on2)c1 (centres unmarked) | -7.72

SMILES | hERG current change (%, negative = inhibition) at 10uM [%]
COc1ccc2[nH]cc(CCNC(=O)CCC3CCCCC3)c2c1 | -8.32
COc1ccc2cc3cc(C(=O)NCc4cccs4)oc3nc2c1 | -3
Cc1ccc(-c2noc(-c3cc4ccccc4oc3=O)n2)cc1 | -8.15
O=C(N/N=C/c1cccnc1)c1cccc(N2CCCC2=O)c1 | 16.5
COc1ccc(/C=N/n2cnn(Cc3ccccc3Cl)c2=S)cc1OC | 6.83
COc1ccc(N2C(=O)CC(NNC(=O)c3cccnc3)C2=O)cc1 (centres unmarked) | 17.9
CCn1c2ccccc2c2cc(NC(=O)COC(=O)c3ccccc3F)ccc21 | 1.98
CCC(C)[C@H](NC(=O)NCc1ccc(S(N)(=O)=O)cc1)C(=O)O (some centres unmarked) | 10.5
CN(CCC#N)C(=S)Nc1ccc(F)cc1 | 6.87
Cc1cc(C)c(C#N)c(Nc2ccc(F)cc2)n1 | 3.38
CCCCCC(=O)Nc1cc2[nH]c(=O)cc(COC)c2cc1C | -20.6
COc1ccc(/C=C/c2nnc(NC(=O)CC(C)C)s2)cc1 | 15
Nc1nonc1C(=O)N/N=C/c1ccc(-c2cccc([N+](=O)[O-])c2)o1 | -25
O=Cc1ccc(OC(=O)/C=C/c2ccccc2)cc1 | 19.3
CCc1cccc(C)c1NC(=O)CSc1nnc(CCCOc2ccc(Cl)cc2Cl)n1C | -34
CCOC(=O)c1nnc2c(Br)c(-c3ccccc3)nn2c1C | 11.2
O=C(COC(=O)c1ncc(Cl)c(Cl)c1Cl)NC(=O)NCc1ccccc1 | 27.7
NC(=O)Nn1c(CCC(=O)O)ccc1-c1ccc(Br)cc1 | 9.77
Cc1ccnc2nc(C(=O)OCCOc3ccccc3)nn12 | -11.5

SMILES | hERG current change (%, negative = inhibition) at 10uM [%]
CC(=O)OCCCn1c(C)[n+](C)c2cc(Cl)c(Cl)cc21.[I-] | -6
COCCN1C=C2C(=O)C(C)(OC(=O)c3cccs3)C(=O)C=C2C=C1CCCC(=O)OC (centres unmarked) | 3.08
CCOCCCn1c(=S)[nH]c2cc(C(=O)NCCc3ccc(OC)c(OC)c3)ccc2c1=O | 5.22
CCOC(=O)CC1=C(C#N)C(c2cccnc2)C(C(=O)OCC)=C(N)O1 (centres unmarked) | 5.32
CCOCCCNC(=O)CN1C(=O)c2cccc3cccc1c23 | 18
CN(C(=O)COC(=O)c1ccccc1Cc1ccccc1)C1CCS(=O)(=O)C1 (centres unmarked) | -25.4
FC(F)(F)c1cnc(N2CCCN(C(=S)Nc3ccccc3)CC2)c(Cl)c1 | -18.4
CCOC(=O)CSc1n[nH]c(NS(=O)(=O)c2ccccc2C(F)(F)F)n1 | -1.78
Cc1nc(NC(=O)CSc2cc(C)c3ccccc3n2)c(Cl)cc1Cl | 5.23
CCOc1ccc(N=C/C=C/c2ccccc2)c(O)c1 | 12
CN1CCN(CC(=O)N2c3ccccc3C(=O)Nc3cccnc32)CC1.Cl | 10.9
COc1ccc(S(=O)(=O)CCc2nnc(NC(=O)c3ccc(F)cc3)s2)cc1 | 2.65
Cc1ccc(C)c(OCCC(=O)OCC(=O)Nc2ccc(C)c(S(=O)(=O)N3CCCCC3)c2)c1 | -11.7
CCc1ccccc1NC(=O)CCS(=O)(=O)c1ccc2c(c1)CCCN2C(C)=O | 14
COc1ccccc1CNC(=O)COc1ccc(C)nc1[N+](=O)[O-] | 18.3
CCCn1c(SCC(=O)NC(C)(C)C)nnc1-c1ccco1 | 24.9
O=C(Oc1c(Cl)cc(Cl)c2cccnc12)c1cccs1 | 1.95
Cc1cc(Cl)c(S(=O)(=O)Nc2ccc(S(=O)(=O)N3CCOCC3)cc2)cc1OCC(N)=O | 11.6
